{
  "source": "PubChem BioAssay AID686978",
  "about": "(National Center for Advancing Translational Sciences (NCATS), 2013)",
  "note": "“And” between values parts separate entries of the source, which are not always exact repeats. Equal entries are not always repeated. Out of some 420,000 compounds screened, about 64,000 (15%) were called active. Inconclusive means that the source gave no clear call. Such entries were picked first, then a sample of the others. Calls follow the shape of the dose curve; as a rule, active = well fitted inhibition curve with a large enough effect; inconclusive = small, poorly fitted or top-dose-only effect; inactive = flat fitted curve, though single readings scatter. Potencies beside an inconclusive call are fits to weak or partial responses and may not hold up. % is scaled to controls: 0 for no effect and ±100 for the full control effect; potency is read from the fitted curve at half-maximal effect; tags tell the direction and shape of the fitted curve.",
  "data": [
    {"test": "qHTS for Inhibitors of human tyrosyl-DNA phosphodiesterase 1 (TDP1): qHTS in cells in absence of CPT; also: nearly all actives have a fitted effect of over 55% in size", "conditions": "DT40 Tdp1-/- hTDP1 cells, no CPT, ATP luminescence, 48 h; activity change, negative = growth inhibition: at 46.2 µM (top of the series) unless noted", "procedure,_shortened": "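Luminescent ATP content (CellTiter-Glo) served as the growth readout. Knockout chicken DT40 cells expressing human TDP1 were exposed to compounds without camptothecin for a minimum 48 hr at 37 °C.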", "values": [
      {"smiles": "Cn1c(O)c(C=NC2CCN(Cc3ccccc3)CC2)c(=O)n(C)c1=O", "activity change, negative = growth inhibition": "inactive: 1.13%"},
      {"smiles": "CN1CC[C@@]2(c3cccc(O)c3)Cc3nc4ccccc4cc3C[C@H]2C1", "Potency": "inconclusive: 29.9 µM [inhibitor, partial curve, poor fit]"},
      {"smiles": "O=C(N/N=C/c1cc(Br)c(Br)s1)c1ccncc1", "Potency": "active: 9.2 µM"},
      {"smiles": "COP(=O)(OC)C(O)C(Cl)(Cl)Cl", "note": "(stereo unspecified)", "activity change, negative = growth inhibition": "inactive: -11.1%"},
      {"smiles": "Oc1ccccc1C1NCc2ccccc2-n2cccc21", "note": "(stereo unspecified)", "Potency": "inconclusive: 29.1 µM [inhibitor, single point]"},
      {"smiles": "Cc1ccc(/C=C2\\C(=O)NC(=O)N(Cc3ccccc3Cl)C2=O)o1", "Potency": "inconclusive: 23.1 µM [inhibitor, single point]"},
      {"smiles": "COc1cc2[nH]c(=O)n(-c3ccccc3)c(=O)c2cc1OC", "activity change, negative = growth inhibition": "inactive: 8.2%"},
      {"smiles": "COc1cc2c(cc1OC)[C@@H]1C(=O)c3ccc(O)c(CC=C(C)C)c3OC1CO2", "note": "(stereo partly specified)", "activity change, negative = growth inhibition": "inactive: -17.4%"},
      {"smiles": "CC(C)(C)n1nnnc1C(c1ccccc1)N1CCC2(CC1)C(=O)NCN2c1ccccc1", "note": "(stereo unspecified)", "Potency": "inconclusive: 23.1 µM [inhibitor, single point]"},
      {"smiles": "O=C(c1ccc(F)c([N+](=O)[O-])c1)N1CC2CC(C1)c1cccc(=O)n1C2", "note": "(stereo unspecified)", "activity change, negative = growth inhibition": "inconclusive: -35.4% [inhibitor]"},
      {"smiles": "O=c1[nH]c2ccccc2n1C1CCN(C(CCc2ccccc2)c2nnnn2C2CCCC2)CC1", "note": "(stereo unspecified)", "Potency": "active: 16.4 µM"},
      {"smiles": "CC(CC(C#N)(c1ccccc1)c1ccccc1)N(C)C", "note": "(stereo unspecified)", "Potency": "inconclusive: 61.1 µM [inhibitor, single point]"},
      {"smiles": "CCn1c(NN=O)nc2ccccc21", "Potency": "inconclusive: 14.6 µM [inhibitor, partial curve]"},
      {"smiles": "Cc1oc(-c2ccccc2F)nc1CS(=O)(=O)CC(=O)N1CCN(c2cccc(C(F)(F)F)c2)CC1", "Potency": "inconclusive: 23.1 µM [inhibitor, single point]"},
      {"smiles": "O=C(Cc1ccccc1)N1CCN(CCCc2ccccc2)CC1", "Potency": "inconclusive: 29.1 µM [inhibitor, single point]"},
      {"smiles": "C=CCn1c(O)c(C=NC2CCN(Cc3ccccc3)CC2)c(=O)[nH]c1=O", "activity change, negative = growth inhibition": "inactive: -20.5%"},
      {"smiles": "CCOc1ccc(N2CC(c3nc4ccccc4n3CCC3CCCCC3)CC2=O)cc1", "note": "(stereo unspecified)", "Potency": "active: 5.17 µM"},
      {"smiles": "O=c1[nH]c(=S)[nH]c(O)c1N=Nc1cccc(S(=O)(=O)N2CCOCC2)c1", "activity change, negative = growth inhibition": "inactive: -14.9%"},
      {"smiles": "CC(=NCc1ccco1)c1c(O)n(-c2ccc(Cl)cc2)c(=O)[nH]c1=O", "Potency": "inconclusive: 10.3 µM [inhibitor, single point]"},
      {"smiles": "Cc1ccccc1CN1CCN(c2ccc(Cl)cc2)CC1", "Potency": "inconclusive: 18.4 µM [inhibitor, single point]"},
      {"smiles": "CCOc1ccc(Nc2c(S(=O)(=O)c3ccc(C)cc3)cnc3ccccc23)cc1", "Potency": "inconclusive: 20.6 µM [inhibitor, single point]"},
      {"smiles": "CC1CCN(C(=O)N2c3ccccc3Sc3ccccc32)CC1", "Potency": "inconclusive: 16.4 µM [inhibitor, single point]"},
      {"smiles": "COC(=O)C1=C(c2cccc(C#N)c2)C[C@@H]2CC[C@H]1N2C(=O)N1CCc2cc(OC)c(OC)cc2C1", "Potency": "inconclusive: 23.1 µM [inhibitor, single point]"},
      {"smiles": "O=C(CNC(=O)c1ccccc1)NCC(=O)OCC(=O)c1ccc([N+](=O)[O-])cc1", "Potency": "inconclusive: 29.1 µM [inhibitor, single point]"},
      {"smiles": "Fc1ccc(C(OCCN2CCN(C/C=C\\c3ccccc3)CC2)c2ccc(F)cc2)cc1", "Potency": "active: 6.68 µM"},
      {"smiles": "Cc1ccc(-n2c(/C=C/c3ccccc3)nc3ccccc3c2=O)cc1Cl", "Potency": "active: 23.1 µM"},
      {"smiles": "NCCc1nc2ccccc2s1", "activity change, negative = growth inhibition": "inactive: 10.4%"},
      {"smiles": "CC(=O)[C@H]1CCC2C3CC[C@H]4C[C@@H](O)CC[C@]4(C)C3CC[C@@]21C", "note": "(stereo partly specified)", "Potency": "inconclusive: 29.1 µM [inhibitor, single point]"},
      {"smiles": "Cc1ccc2cc3c(ccc4ccccc43)c3c2c1CC3", "Potency": "inconclusive: 16.4 µM [inhibitor, partial curve]"},
      {"smiles": "CC1CCCC(C2(O)C(=O)Nc3ccccc32)C1=O", "note": "(stereo unspecified)", "Potency": "inconclusive: 4.61 µM [inhibitor, partial curve]"},
      {"smiles": "CC(N=Cc1c(O)n(C2CC2)c(=S)[nH]c1=O)c1ccccc1", "note": "(stereo unspecified)", "activity change, negative = growth inhibition": "inactive: 0.236%"},
      {"smiles": "N#CC(C#N)=NNc1ccc(S(=O)(=O)N2CCCC2)cc1", "Potency": "active: 16.4 µM"},
      {"smiles": "CCOC(=O)c1ccc(N2C(=O)CC(N3CCC(O)(c4ccc(Br)cc4)CC3)C2=O)cc1", "note": "(stereo unspecified)", "Potency": "inconclusive: 29.1 µM [inhibitor, single point]"},
      {"smiles": "Cc1ccc(OCC(=O)N2CCCC(N3CCN(c4ccc(F)cc4)CC3)C2)cc1", "note": "(stereo unspecified)", "Potency": "inconclusive: 14.6 µM [inhibitor, single point]"},
      {"smiles": "OCCOCCO", "activity change, negative = growth inhibition": "inactive: 12.4%"},
      {"smiles": "CCOP(=O)(/C=C(\\Cl)c1ccccc1)C(O)c1ccc(F)cc1", "note": "(stereo unspecified)", "Potency": "active: 16.4 µM"},
      {"smiles": "CN=C(SCc1cc2c(cc1Cl)OCO2)c1c(O)n(C)c(=O)n(C)c1=O", "Potency": "inconclusive: 8.2 µM [inhibitor, partial curve, poor fit]"},
      {"smiles": "COc1ccccc1-n1c(-c2ccccc2Cl)nc2ccccc2c1=O", "Potency": "active: 14.6 µM"},
      {"smiles": "CCN1C[C@@]2(C)CC[C@@H](OC)[C@@]34C2C(O)[C@@]2(OCO[C@]25CC(OC)C2C[C@@]3(O)C5C2O)C14", "note": "(stereo partly specified)", "activity change, negative = growth inhibition": "inactive: -1.5%"},
      {"smiles": "c1cnc(OCCN2CC2)cn1", "Potency": "active: 13 µM"},
      {"smiles": "Cc1oc(-c2cccc(Cl)c2)nc1CN1CCC(C(=O)NCCCN2CCN(c3cccc(Cl)c3)CC2)CC1", "Potency": "active: 18.4 µM"},
      {"smiles": "Cn1c(O)c(C(=Nc2ccc(F)cc2)c2ccccc2Cl)c(=O)n(C)c1=O", "Potency": "active: 7.31 µM"},
      {"smiles": "CC(=NCc1ccco1)c1c(O)n(-c2ccc(C)cc2)c(=O)[nH]c1=O", "activity change, negative = growth inhibition": "inactive: 10.7%"},
      {"smiles": "CCCCn1c(-c2nonc2NC(=O)c2ccccc2Cl)nc2ccccc21", "Potency": "active: 23.1 µM"},
      {"smiles": "OCCOc1ccccc1", "Potency": "inactive"},
      {"smiles": "CC1(C)CC2(CCO1)NCCN1C(=O)CSC12", "note": "(stereo unspecified)", "activity change, negative = growth inhibition": "inactive: -13.5%"},
      {"smiles": "O=C(N/N=C/c1ccccc1OC(=O)N1CCOCC1)c1cccs1", "Potency": "active: 4.61 µM"},
      {"smiles": "Cc1ccc(C)c(N2CCN(C(=O)CCNS(=O)(=O)c3ccc4c(c3)oc(=O)n4C)CC2)c1", "Potency": "inconclusive: 29.1 µM [inhibitor, single point]"},
      {"smiles": "Nc1c(C(=O)NCc2ccco2)c2nc3ccccc3nc2n1CCN1CCCCC1", "Potency": "active: 23.1 µM"},
      {"smiles": "CN1CCC2(CC1)CCN(C(=O)Oc1ccccc1)CC2", "activity change, negative = growth inhibition": "inactive: -11.1%"},
      {"smiles": "CCCCn1c(O)c(C(CC)=NCc2ccc(F)cc2)c(=O)[nH]c1=O", "Potency": "inconclusive: 14.6 µM [inhibitor, partial curve]"},
      {"smiles": "CC(C)OC(=O)c1c(N)n(CC2CCCO2)c2nc3ccccc3nc12", "note": "(stereo unspecified)", "Potency": "inconclusive: 14.6 µM [inhibitor, partial curve]"},
      {"smiles": "CCOc1ccc(-c2cn3c(n2)sc2cc(C(=O)N4CCCC(C)C4)ccc23)cc1", "note": "(stereo unspecified)", "Potency": "active: 6.51 µM"},
      {"smiles": "CCCCCCn1c(=O)c(C(=O)Nc2ncccc2O)c(O)c2ccccc21", "Potency": "active: 5.17 µM"},
      {"smiles": "Cc1ccccc1OP(=O)(Oc1ccccc1C)N1CCOCC1", "Potency": "inconclusive: 16.4 µM [inhibitor, single point]"},
      {"smiles": "CCc1cc2c(=O)n(C(C)C(=O)OC3CCCCC3)cnc2s1", "note": "(stereo unspecified)", "Potency": "inconclusive: 25.9 µM [inhibitor, partial curve]"},
      {"smiles": "CCCOC(=O)C1=C(C)CS[C@@H]2[C@H](NC(=O)COc3ccccc3)C(=O)N12", "Potency": "inconclusive: 25.1 µM [inhibitor, single point]"},
      {"smiles": "CCOC(=O)c1c(C)n(Cc2ccc3c(c2)OCO3)c2ccc(O)cc12", "Potency": "inconclusive: 18.4 µM [inhibitor, partial curve]"},
      {"smiles": "N[C@@H](Cc1cc(I)c(O)c(I)c1)C(=O)O", "Potency": "inconclusive: 29.1 µM [inhibitor, single point]"},
      {"smiles": "CC12CC3CC(C)(C1)CC(N)(C3)C2", "Potency": "inactive and inconclusive: 6.51 µM [inhibitor, single point]"},
      {"smiles": "COc1ccc(OC)c(CN2CCN(C(=O)COc3cccc(C)c3)CC2)c1", "Potency": "inconclusive: 29.1 µM [inhibitor, single point]"},
      {"smiles": "Cn1cccc1/C=C1\\C(=O)NC(=O)N(Cc2ccccc2)C1=O", "Potency": "active: 2.06 µM"},
      {"smiles": "NC(=O)c1cc(N2CC2)c([N+](=O)[O-])cc1[N+](=O)[O-]", "Potency": "active: 0.0366 µM"},
      {"smiles": "Cn1c(=O)n(C)c2cc(CNCCc3ccccc3F)ccc21", "Potency": "inconclusive: 18.4 µM [inhibitor, single point]"},
      {"smiles": "Nc1nnc(Sc2ncccc2[N+](=O)[O-])s1", "Potency": "active: 16.4 µM"},
      {"smiles": "CCC(=O)CC(c1ccc([N+](=O)[O-])cc1)c1c(O)c2ccccc2oc1=O", "note": "(stereo unspecified)", "Potency": "inconclusive: 20.6 µM [inhibitor, single point]"},
      {"smiles": "O=[N+]([O-])c1ccc(N2CCCCCC2)c2ncccc12", "activity change, negative = growth inhibition": "inactive: 19.3%"},
      {"smiles": "Cc1c(C(=O)OC2CCCCC2)[nH]c2c1C(=O)CC(c1ccccc1)C2", "note": "(stereo unspecified)", "Potency": "active: 2.06 µM"},
      {"smiles": "O=[N+]([O-])c1ccc(F)c([N+](=O)[O-])c1", "Potency": "inconclusive: 33.5 µM [inhibitor, single point]"},
      {"smiles": "O=c1n(Cl)c(=O)n(Cl)c(=O)n1Cl", "activity change, negative = growth inhibition": "inactive: 3.39%"},
      {"smiles": "Cc1ccc(S(=O)(=O)CC(C)(O)C(=O)Nc2cccc(C(F)(F)F)c2)cc1", "note": "(stereo unspecified)", "activity change, negative = growth inhibition": "inactive: -1.64%"},
      {"smiles": "COc1ccc(NP(=O)(Oc2ccc(Cl)cc2)Oc2ccc(Cl)cc2)cc1OC", "Potency": "active: 25.9 µM"},
      {"smiles": "O=P(/C=C1\\OCc2ccccc21)(Oc1ccccc1)Oc1ccccc1", "Potency": "inconclusive: 29.1 µM [inhibitor, single point]"},
      {"smiles": "CCCNC(=O)N1[C@H]2CC[C@@H]1C(C(=O)OC)=C(c1cc3ccccc3o1)C2", "Potency": "active: 16.4 µM"},
      {"smiles": "CN1C(=O)NC(=O)/C(=C/c2ccc(C(=O)O)cc2)C1=O", "Potency": "inconclusive: 32.6 µM [inhibitor, single point]"},
      {"smiles": "CCOc1ccccc1CNCCc1ccc2c(c1)OCO2", "Potency": "inconclusive: 23.1 µM [inhibitor, single point]"}
    ]}
  ]
}
